# The campaign covered roughly 330,000 compounds. About 4,200 (1.3%) were called active. The inconclusive results got no clear call from the source; some entries with a clear call stand among them for comparison. Calls come from the whole dose curve; as a rule, active = well fitted activation curve with a large enough effect; inconclusive = small, poorly fitted or top-dose-only effect; inactive = no such curve, though single readings can be large or run the other way. A potency beside an inconclusive call is a rough fit, not a confirmed value.
# Experiment: qHTS screen for small molecules that induce genotoxicity in human embryonic kidney (HEK293T) cells expressing luciferase-tagged ELG1; note: nearly all actives have a fitted effect of over 60% in size; for activity change, positive = activation: % of control where 0% means no effect
# Details: HEK293T ELG1-luciferase reporter, luminescence, 16 h; series mostly up to 46 µM; activity change, positive = activation: at the top concentration
# Outline: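 Genotoxic stress is detected as increased luminescence from luciferase-tagged ELG1 in HEK293T cells, measured with ONE-Glo after a 16 hr treatment at 37 °C.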
# Potency is the fitted concentration of half-maximal effect; tags give direction and shape of the fitted curve.
SMILES,Potency,"activity change, positive = activation"
O=C(c1ccccc1)c1cnc(-c2ccc(Cl)cc2)s1,active: 2.59 µM,
C/C(=N\Nc1nnc2c3ccccc3n(C)c2n1)c1ccc(C)o1,,inactive: -7.35%
O=C(N/N=C/c1ccccc1F)c1cc2c(ccc3ccccc32)o1,"inconclusive: 9.2 µM [activator, partial curve, poor fit]",
CCOC(=O)c1cnn(-c2ccc(C)cc2)c1N,"inconclusive: 18.4 µM [activator, partial curve]",
O=C(Nc1ccc(S(=O)(=O)N2CCCCCC2)cc1)c1ccco1,"inconclusive: 10 µM [activator, partial curve]",
Cc1cccc(OCCn2c(=O)n(C)c3ccccc32)c1,active: 6.51 µM,
CCOC(=O)c1oc2cccc(OCC(O)CNC(C)C)c2c1C (centres undefined),"inconclusive: 32.6 µM [activator, partial curve, poor fit]",
CN(c1ccc(O)cc1)c1nc(-c2cccs2)cs1,,inactive: -2.67%
O=C(COc1ccccc1)Nc1ncccn1,"inconclusive: 18.4 µM [activator, partial curve, poor fit]",
Cc1ccc(OCC(=O)N2CCCCCC2)c(C)c1,"inconclusive: 23.1 µM [activator, partial curve, poor fit]",
CCC1S/C(=N/C(=O)NC2CCCCC2)NC1=O (centres undefined),"inconclusive: 23.1 µM [activator, partial curve, poor fit]",
Nc1nc2ccc(Oc3ccccc3)cc2s1,active: 8.2 µM,
COc1cccc(C2CC(c3cccc(NS(C)(=O)=O)c3)=NN2C(=O)c2ccccc2)c1OC (centres undefined),,inactive: -0.596%
Cc1ccc(NC(=O)C2Cc3ccccc3CN2C(=O)c2ccco2)cc1S(=O)(=O)N(C)C (centres undefined),"inconclusive: 6.51 µM [activator, single point]",
O=C(/C=C/Nc1ccc(Br)cc1F)c1ccccc1,"inconclusive: 0.58 µM [activator, partial curve, poor fit]",
C/C(=N\OC(=O)c1cccc(C)c1)c1sc(-c2ccccc2)nc1C,active: 5.8 µM,
Cc1ccc(SCCN2CCC(C)CCC2=O)cc1 (centres undefined),"inconclusive: 9.2 µM [activator, partial curve]",
CCOC(=O)C1CCN(C(=O)c2cc3c(ccc4ccccc43)o2)CC1,active: 9.2 µM,
CCOc1cc(C(=O)N(C)CC(=O)Nc2cccc(F)c2)ccc1OCC(=O)N1CCOCC1,,inactive: -0.324%
CC(C)Cc1ccc(S(=O)(=O)N2CCN(c3ccccn3)CC2)cc1,,inactive: -0.847%
Cc1[nH]n(-c2ccccc2)c(=O)c1C=Nc1cccc2cccnc12,,inactive: -8.3%
O=C(NCCc1c[nH]c2ccccc12)C(=O)Nc1ccccc1,"inconclusive: 13 µM [activator, partial curve]",
O=C(NCCN1C(=O)S/C(=C\c2ccc(Cl)cc2)C1=O)c1ccc(F)c(S(=O)(=O)N2CCOCC2)c1,"inconclusive: 7.31 µM [activator, partial curve, poor fit]",
O=C(Nc1ccn(-c2ccccc2)n1)c1ccccc1Br,"inconclusive: 18.4 µM [activator, partial curve, poor fit]",
Cc1cccc2sc(NNC(=O)c3ccc4c(c3)OCCO4)nc12,,inactive: -1.71%

SMILES,Potency,"activity change, positive = activation"
O=C(CNC(=O)c1ccccc1)NCC(O)c1ccc([N+](=O)[O-])cc1 (centres undefined),,inactive: -2.48%
CCN(CC)C(=O)c1ccc2c(c1[N+](=O)[O-])C(=O)c1ccccc1C2=O,"inconclusive: 8.2 µM [activator, partial curve, poor fit]",
Cc1cccc(NC(=O)Nc2ccc3c(c2)OCO3)n1,"inconclusive: 5.8 µM [activator, partial curve]",
COc1ccc2nc(N3C(=O)CC(Cc4ccc(C)cc4)C3=O)sc2c1 (centres undefined),,inactive: -0.935%
Cc1cccc(OCC(=O)N2CCC(c3ccccc3)C2)c1 (centres undefined),active: 20.6 µM,
COc1cccc(CN(C)S(=O)(=O)c2ccccc2Br)c1,,inactive: 0.344%
CC(=O)N1CCN(c2ccc(NC(=O)c3ccc(Br)o3)cc2Cl)CC1,,inactive: -3.97%
O=c1[nH]n(CC2COC3(CCCCC3)O2)c(=O)c2ccccc12 (centres undefined),"inconclusive: 20.6 µM [activator, single point]",
O=C(N/N=C/c1ccc(-c2cccc([N+](=O)[O-])c2)o1)c1ccc([N+](=O)[O-])cc1,,inactive: -9.84%
CC(C)/C=N/NC(=O)c1cccc(N2CCCC2=O)c1,,inactive: 6.81%
COC(=O)c1ccccc1NC(=O)c1ccccc1OC,,inactive: -3.84%
Cn1c(=O)c(C(=O)Nc2ncccn2)c(O)c2ccccc21,"inconclusive: 6.51 µM [activator, partial curve, poor fit]",
Cn1cccc1/C=N/NC(=O)c1ccco1,"inconclusive: 23.1 µM [activator, partial curve, poor fit]",
CCc1cccc(NC(=O)c2cnn(-c3ccccc3)c2C)c1,active: 1.83 µM,
C=CCSc1nnc(-c2ccc(Cl)cc2Cl)o1,"inconclusive: 2.06 µM [activator, full curve]",
CCOC(=O)C1CCN(c2ncnc3c2cnn3-c2ccccc2)CC1,"inconclusive: 25.9 µM [activator, single point]",
COc1ccccc1-c1noc(-c2ccccc2)n1,"inconclusive: 3.26 µM [activator, single point]",
CN(C)/C=C/c1oc2ccc(O)cc2c1[N+](=O)[O-],"inconclusive: 20.6 µM [activator, partial curve, poor fit]",
Nc1c(C(=O)O)cnc2c(-c3ccc(Cl)cc3)cnn12,"inconclusive: 11.6 µM [activator, partial curve]",
O=C(NC(=S)Nc1ccccc1Br)c1ccc2c(c1)OCO2,"inconclusive: 5.8 µM [activator, partial curve]",
Cc1ccsc1/C=N\NC(=O)c1ccc2c(c1)OCO2,"inconclusive: 2.59 µM [activator, full curve]",
COc1ccc(C(C(=O)NC2CCCCC2)N(Cc2ccco2)C(=O)c2ccccn2)c(OC)c1 (centres undefined),,inactive: -2.91%
O=C(Nc1ccc2[nH]ncc2c1)c1ccccc1Cl,"inconclusive: 9.2 µM [activator, partial curve, poor fit]",
COc1cc(C(=O)Nc2ccc3c(c2)N(C(=O)CN2CCN(C)CC2)c2ccccc2CC3)cc(OC)c1OC,"inconclusive: 16.4 µM [activator, partial curve, poor fit]",
CCN1C(=O)c2cccc3c(S(=O)(=O)NCc4ccco4)ccc1c23,"inconclusive: 25.9 µM [activator, partial curve, poor fit]",

SMILES,Potency,"activity change, positive = activation"
COc1ccc2nc(C)cc(SCC(=O)N3CCCCC3)c2c1,,inactive: -13.2%
Cc1nc2ccccc2nc1N/N=C/c1ccc(O)cc1O,"inconclusive: 29.1 µM [activator, partial curve, poor fit]",
Cc1ccnc(NC(=O)c2ccoc2C)c1,"inconclusive: 13 µM [activator, partial curve, poor fit]",
COc1ccc(N2CCN(C(=O)CN3CCN(c4nc(-c5ccc(F)cc5)cs4)CC3)CC2)cc1,,inactive: -0.386%
CCc1c(C)nc(SCC(=O)N2C(C)CCCC2C)[nH]c1=O (centres undefined),"inconclusive: 16.4 µM [activator, partial curve]",
COc1ccc(Nc2nc(N3CCOCC3)nc(N3CCOCC3)n2)c(OC)c1,,inactive: 2.95%
O=C1CC(c2ccc3c(c2)OCCO3)Oc2ccc([N+](=O)[O-])cc21 (centres undefined),active: 0.651 µM,
Cc1c(OCC(=O)N(C)c2ccccc2)ccc2c3c(c(=O)oc12)CCC3,,inactive: 16.9%
Cc1ccc2nc(/C(C#N)=C/c3ccc(O)c(O)c3)[nH]c2c1,"inconclusive: 18.3 µM [activator, partial curve]",
CC(C)(C)Nc1nc(-c2ccc3c(c2)CCN3C(=O)C2CC2)cs1,"inconclusive: 1.83 µM [activator, partial curve, poor fit]",
CCC(=O)c1ccc(OCC(=O)OCC(=O)N2c3ccccc3CC2C)cc1 (centres undefined),,inactive: 1.24%
Cc1ccc(/C=N/NC(=O)c2ccccn2)o1,"inconclusive: 25.9 µM [activator, partial curve, poor fit]",
CCOC(=O)c1cnc2ccc(OC)cc2c1NCCc1ccc(OC)c(OC)c1,,inactive: -7.13%
Cc1cccc(S(=O)(=O)NC(Cc2c[nH]c3ccccc23)C(=O)O)c1 (centres undefined),,inactive: -1.19%
COCCn1c(N/N=C(C)/C=C/c2ccccc2)nc2c1c(=O)[nH]c(=O)n2C,,inactive: 0.183%
Cc1ccc(NC(=O)CN(C)C(=O)c2ccc(S(=O)(=O)N(C)c3ccccc3)cc2)cc1,,inactive: 1.06%
CCOC(=O)C1CCN(C(=O)c2cc(COc3ccc(OC)c4ccccc34)on2)CC1,"inconclusive: 11.6 µM [activator, partial curve]",
Cn1nccc1C(=O)Nc1ccc(Cl)cc1,"inconclusive: 18.4 µM [activator, partial curve, poor fit]",
Cc1cc(C)n(-c2ccc(C(=O)Nc3nc4ccccc4s3)cc2)n1,"inconclusive: 2.06 µM [activator, full curve]",
Cc1cc(C)c(OCC(=O)Nc2ccc3c(c2)OCO3)cc1C,"inconclusive: 5.8 µM [activator, full curve]",
CC(C)c1cc(C(=O)Nc2ccc3c(c2)OCO3)no1,active: 2.06 µM,
COc1ccc(C(=O)Nc2ccc(NC(=O)c3cnccn3)cn2)cc1,"inconclusive: 16.4 µM [activator, partial curve, poor fit]",
CCc1ccc(NC(=O)CCCNC(=O)Cn2cnc3sc(C)c(C)c3c2=O)cc1,"inconclusive: 25.9 µM [activator, partial curve, poor fit]",
COc1ccc(-c2csc(Nc3ccccn3)n2)cc1OC,active: 2.31 µM,

# From PubChem BioAssay AID504466 (National Center for Advancing Translational Sciences (NCATS), 2011)
